In the supplement of paper PMC12645437, “Orthogonal IMiD-Degron Pairs Induce Selective Protein Degradation in Cells” (ACS Chemical Biology, 2025):
The other results are listed elsewhere or left out.

biological target: no compound (DMSO); assay: log2 fold change of degron read counts, EGFP-low vs EGFP+ sorted cells; higher = lower degron-EGFP level without compound (poor expression or instability); conditions: compound: DMSO control; 18 h
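Also: jurkat cells carrying a lentiviral library of mutant zinc finger degrons fused to EGFP plus mCherry, mCherry+ cells FACS sorted, degron abundance counted by next-generation sequencing.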

Sequence	log2 fold change of degron read counts
FWCEICGRYFTQKGNLLRHIKL	1.06
LCCEICGFDCTQKGNLLRHIKL	-0.487
LHCEICGFICTQKGNLLRHIKL	0.756
FACNVCGALFTQKGNLLRHIKL	-0.398
FSCPVCGASFTQKGNLLRHIKL	-1.37
FMCEICGANFTQKGNLLRHIKL	-1.88
FMCPICGHRFTQKGNLLRHIKL	-0.196
FWCEQCGAQFTQKGNLLRHIKL	-1.52
FACEICGRTFTQKGNLLRHIKL	-1.73
FTCPICGHVFTQKGNLLRHIKL	-0.248
FSCDVCGAPFTQKGNLLRHIKL	-0.983
FHCNQCGARFTQKGNLLRHIKL	-0.185
LACEICGFACTQKGNLLRHIKL	0.0326
FTCEICGRYFTQKGNLLRHIKL	-0.133
FVCNICGAGFTQKGNLLRHIKL	-0.171
FVCNICGAFFTQKGNLLRHIKL	0.227
FDCNVCGASFTQKGNLLRHIKL	-2.33
LCCNQCGFSCTQKGNLLRHIKL	0.453
LHCEICGFWCTQKGNLLRHIKL	1.13
FTCEVCGAFFTQKGNLLRHIKL	-1.02
FECNQCGHSFTQKGNLLRHIKL	-1.46
LVCEICGFCCTQKGNLLRHIKL	-0.0564
FWCNICGAGFTQKGNLLRHIKL	0.814
LICPICGFGCTQKGNLLRHIKL	1.06
FECEICGRLFTQKGNLLRHIKL	-0.848

Sequence	log2 fold change of degron read counts
FGCPICGRSFTQKGNLLRHIKL	-0.738
FMCNICGACFTQKGNLLRHIKL	-0.18
FFCEICGRHFTQKGNLLRHIKL	-1.14
FWCNICGALFTQKGNLLRHIKL	1.35
FICEICGHYFTQKGNLLRHIKL	-1.27
FICEQCGAGFTQKGNLLRHIKL	-2.18
FNCEVCGASFTQKGNLLRHIKL	-2.12
LACEICGFKCTQKGNLLRHIKL	-0.731
FKCEICGAGFTQKGNLLRHIKL	-1.46
FECEICGHPFTQKGNLLRHIKL	-2.07
FECPICGAYFTQKGNLLRHIKL	-1.21
FRCNVCGAVFTQKGNLLRHIKL	-0.245
FCCPICGHWFTQKGNLLRHIKL	0.592
FRCNQCGALFTQKGNLLRHIKL	-0.921
FVCPVCGAQFTQKGNLLRHIKL	-0.813
FKCPICGRHFTQKGNLLRHIKL	-0.443
FSCEICGHSFTQKGNLLRHIKL	-1.82
FQCNICGAGFTQKGNLLRHIKL	-0.613
FICEVCGAVFTQKGNLLRHIKL	-0.847
FFCPQCGACFTQKGNLLRHIKL	0.0368
LFCNQCGFSCTQKGNLLRHIKL	0.875
FTCDVCGAGFTQKGNLLRHIKL	-2.17
FACNQCGHIFTQKGNLLRHIKL	-0.116
FLCEVCGALFTQKGNLLRHIKL	-1.24
FECNQCGHFFTQKGNLLRHIKL	-0.136
